# This is one part of the list.
# B1: RegIIIgamma (Mus musculus), O09049 (protein)
# chain: MLPRITITIMSWMLLSCLMLLSQVQGEVAKKDAPSSRSSCPKGSRAYGSYCYALFSVSKNWYDADMACQKRPSGHLVSVLSGAEASFLSSMIKSSGNSGQYVWIGLHDPTLGYEPNRGGWEWSNADVMNYINWETNPSSSSGNHCGTLSRASGFLKWRENYCNLELPYVCKFKA
# What was measured:
# Experiment in all cases: glycan array binding signal (z-score within array); higher = stronger binding
# Details in all cases: glycan notation: IUPAC condensed, linker removed
# [1] = molecular target: Neu5Ac(a2-3)[Neu5Ac(a2-6)]GalNAc
# How it was run: (§1)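 The binding signal is a Z-score computed within each array. Data were drawn from 3228 arrays in the Consortium for Functional Glycomics database, restricted to those with a known protein sequence. Scores were averaged over arrays of the same protein sequence at different concentrations or buffers, and over linkers, and negative values can be taken as non-binding.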
# [2] = molecular target: Neu5Ac(a2-6)Gal
# How it was run: as §1
# [3] = molecular target: Neu5Ac(a2-6)Gal(b1-4)Glc
# How it was run: as §1
# [4] = molecular target: Neu5Ac(a2-6)Gal(b1-4)GlcNAc
# How it was run: as §1
# [5] = molecular target: Neu5Ac(a2-6)Gal(b1-4)GlcNAc(b1-3)Gal(b1-4)GlcNAc
# How it was run: as §1
# [6] = molecular target: Neu5Ac(a2-6)Gal(b1-4)GlcNAc(b1-3)Gal(b1-4)[Fuc(a1-3)]GlcNAc(b1-3)Gal(b1-4)[Fuc(a1-3)]GlcNAc
# How it was run: as §1
# [7] = molecular target: Neu5Ac(a2-6)Gal(b1-4)GlcNAc6S
# How it was run: as §1
# [8] = molecular target: Neu5Ac(a2-6)GalNAc
# How it was run: as §1
# [9] = molecular target: Neu5Ac(a2-8)Neu5Ac
# How it was run: as §1
# [10] = molecular target: Neu5Ac(a2-8)Neu5Ac(a2-3)Gal(b1-4)Glc
# How it was run: as §1
# [11] = molecular target: Neu5Ac(a2-8)Neu5Ac(a2-3)[GalNAc(b1-4)]Gal(b1-4)Glc
# How it was run: as §1
# [12] = molecular target: Neu5Ac(a2-8)Neu5Ac(a2-8)Neu5Ac
# How it was run: as §1
# [13] = molecular target: Neu5Ac(a2-8)Neu5Ac(a2-8)Neu5Ac(a2-3)Gal(b1-4)Glc
# How it was run: as §1
# [14] = molecular target: Neu5Ac(a2-8)Neu5Ac(a2-8)Neu5Ac(a2-3)[GalNAc(b1-4)]Gal(b1-4)Glc
# How it was run: as §1
# [15] = molecular target: Neu5Ac(b1-6)GalNAc
# How it was run: as §1
# [16] = molecular target: Neu5Ac(b2-6)Gal(b1-4)GlcNAc
# How it was run: as §1
# [17] = molecular target: Neu5Ac9Ac(a2-6)Gal(b1-4)GlcNAc
# How it was run: as §1
# [18] = molecular target: Neu5Gc(a2-3)Gal(b1-3)GlcNAc
# How it was run: as §1
# [19] = molecular target: Neu5Gc(a2-3)Gal(b1-3)[Fuc(a1-4)]GlcNAc
# How it was run: as §1
# [20] = molecular target: Neu5Gc(a2-3)Gal(b1-4)Glc
# How it was run: as §1
# [21] = molecular target: Neu5Gc(a2-3)Gal(b1-4)GlcNAc
# How it was run: as §1
# [22] = molecular target: Neu5Gc(a2-3)Gal(b1-4)[Fuc(a1-3)]GlcNAc
# How it was run: as §1
# [23] = molecular target: Neu5Gc(a2-6)Gal(b1-4)GlcNAc
# How it was run: as §1
# [24] = molecular target: Neu5Gc(a2-6)GalNAc
# How it was run: as §1
binder,measurement,setting,value
B1,glycan array binding signal (z-score),[1],-0.098
same,glycan array binding signal (z-score),[2],-0.191
same,glycan array binding signal (z-score),[3],-0.174
same,glycan array binding signal (z-score),[4],-0.165
same,glycan array binding signal (z-score),[5],-0.197
same,glycan array binding signal (z-score),[6],-0.029
same,glycan array binding signal (z-score),[7],0.1
same,glycan array binding signal (z-score),[8],-0.015
same,glycan array binding signal (z-score),[9],-0.139
same,glycan array binding signal (z-score),[10],-0.078
same,glycan array binding signal (z-score),[11],-0.133
same,glycan array binding signal (z-score),[12],-0.108
same,glycan array binding signal (z-score),[13],-0.163
same,glycan array binding signal (z-score),[14],-0.079
same,glycan array binding signal (z-score),[15],-0.185
same,glycan array binding signal (z-score),[16],-0.177
same,glycan array binding signal (z-score),[17],-0.154
same,glycan array binding signal (z-score),[18],-0.168
same,glycan array binding signal (z-score),[19],0.421
same,glycan array binding signal (z-score),[20],-0.148
same,glycan array binding signal (z-score),[21],-0.175
same,glycan array binding signal (z-score),[22],-0.119
same,glycan array binding signal (z-score),[23],-0.207
same,glycan array binding signal (z-score),[24],-0.147
